# Test results taken from the supplement of paper PMC8728848.
# The list shows a part of the results.
# Legend:
# Experiment in all cases: glycan array binding signal (z-score within array); higher = stronger binding
# Conditions in all cases: glycan notation: IUPAC condensed, linker removed
# [1] = target: Gal(b1-4)GlcNAc(b1-3)[Gal(b1-4)GlcNAc(b1-6)]GalNAc
# In short: (§1)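 The binding signal is a Z-score computed within each array. Data were drawn from 3228 arrays in the Consortium for Functional Glycomics database, restricted to those with a known protein sequence. Scores were averaged over arrays of the same protein sequence at different concentrations or buffers, and over linkers, and negative values can be taken as non-binding.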
# [2] = target: Gal(b1-4)GlcNAc(b1-3)[GlcNAc(b1-6)]Gal(b1-4)GlcNAc
# In short: as §1
# [3] = target: Gal(b1-4)GlcNAc(b1-6)Gal(b1-4)GlcNAc
# In short: as §1
# [4] = target: Gal(b1-4)GlcNAc(b1-6)GalNAc
# In short: as §1
# [5] = target: Gal(b1-4)GlcNAc(b1-6)[Gal(b1-3)]GalNAc
# In short: as §1
# [6] = target: Gal(b1-4)GlcNAc(b1-6)[Gal(b1-4)GlcNAc(b1-3)]GalNAc
# In short: as §1
# Gal(b1-4)GlcNAc6P = target: Gal(b1-4)GlcNAc6P
# In short: as §1
# Gal(b1-6)Gal = target: Gal(b1-6)Gal
# In short: as §1
# Gal3S(b1-3)GalNAc = target: Gal3S(b1-3)GalNAc
# In short: as §1
# Gal3S(b1-3)GlcNAc = target: Gal3S(b1-3)GlcNAc
# In short: as §1
# [7] = target: Gal3S(b1-3)[Fuc(a1-4)]GlcNAc
# In short: as §1
# Gal3S(b1-4)Glc = target: Gal3S(b1-4)Glc
# In short: as §1
# Gal3S(b1-4)Glc6S = target: Gal3S(b1-4)Glc6S
# In short: as §1
# Gal3S(b1-4)GlcNAc = target: Gal3S(b1-4)GlcNAc
# In short: as §1
# [8] = target: Gal3S(b1-4)[Fuc(a1-3)]Glc6S
# In short: as §1
# [9] = target: Gal3S(b1-4)[Fuc(a1-3)]GlcNAc
# In short: as §1
# [10] = target: Gal3S(b1-4)[Fuc(a1-3)]GlcNAc6S
# In short: as §1
# Gal3S4S(b1-4)GlcNAc = target: Gal3S4S(b1-4)GlcNAc
# In short: as §1
# Gal3S6S(b1-4)GlcNAc = target: Gal3S6S(b1-4)GlcNAc
# In short: as §1
# Gal3S6S(b1-4)GlcNAc6S = target: Gal3S6S(b1-4)GlcNAc6S
# In short: as §1
# Gal4S(b1-4)GlcNAc = target: Gal4S(b1-4)GlcNAc
# In short: as §1
# Gal4S6S(b1-4)GlcNAc = target: Gal4S6S(b1-4)GlcNAc
# In short: as §1
# Gal6P(b1-4)GlcNAc = target: Gal6P(b1-4)GlcNAc
# In short: as §1
binder,measurement,setting,value
"UDA (Urtica dioica), P11218 (protein) MMMRFLSAVVIMSSAMAVGLVSAQRCGSQGGGGTCPALWCCSIWGWCGDSEPYCGRTCENKCWSGERSDHRCGAAVGNPPCGQDRCCSVHGWCGGGNDYCSGSKCQYRCSSSVRGPRVALSGNSTANSIGNVVVTEPLFDQMFSHRKDCPSQGFYSYHSFLVAAESFPAFGTIGDVATRKREVAAFLAHISQATSGERSDVENPHAWGLCHINTTTVTENDFCTSSDWPCAAGKKYSPRGPIQLTHNFNYGLAGQAIGEDLIQNPDLVEKDPIISFKTALWFWMSQHDNKPSCHDIVLNANSAANRIPNKGVIGNIISRAFGHDDFAVRSSSIGFYKRYCDMLGVSYGHDLKYWFDNTPSSEFQRIQMRVAA",glycan array binding signal (z-score),[1],-0.257
same,glycan array binding signal (z-score),[2],-0.172
same,glycan array binding signal (z-score),[3],0.522
same,glycan array binding signal (z-score),[4],-0.162
same,glycan array binding signal (z-score),[5],-0.18
same,glycan array binding signal (z-score),[6],-0.175
same,glycan array binding signal (z-score),Gal(b1-4)GlcNAc6P,-0.175
same,glycan array binding signal (z-score),Gal(b1-6)Gal,-0.173
same,glycan array binding signal (z-score),Gal3S(b1-3)GalNAc,-0.179
same,glycan array binding signal (z-score),Gal3S(b1-3)GlcNAc,-0.182
same,glycan array binding signal (z-score),[7],-0.17
same,glycan array binding signal (z-score),Gal3S(b1-4)Glc,-0.179
same,glycan array binding signal (z-score),Gal3S(b1-4)Glc6S,-0.185
same,glycan array binding signal (z-score),Gal3S(b1-4)GlcNAc,0.131
same,glycan array binding signal (z-score),[8],-0.167
same,glycan array binding signal (z-score),[9],-0.184
same,glycan array binding signal (z-score),[10],0.367
same,glycan array binding signal (z-score),Gal3S4S(b1-4)GlcNAc,0.273
same,glycan array binding signal (z-score),Gal3S6S(b1-4)GlcNAc,-0.177
same,glycan array binding signal (z-score),Gal3S6S(b1-4)GlcNAc6S,-0.179
same,glycan array binding signal (z-score),Gal4S(b1-4)GlcNAc,0.416
same,glycan array binding signal (z-score),Gal4S6S(b1-4)GlcNAc,-0.174
same,glycan array binding signal (z-score),Gal6P(b1-4)GlcNAc,-0.183
